Measured values from ChEMBL document CHEMBL4888484, “Replenishing the malaria drug discovery pipeline: Screening and hit evaluation of the MMV Hit Generation Library 1 (HGL1) against asexual blood stage Plasmodium falciparum ,using a nano luciferase reporter read-out” (2022).
About 540 (0.36%) of roughly 150,000 compounds showed an effect of 50% or more. This is one part of the list.

Each compound was assayed on Plasmodium falciparum (assay: Primary screen in NF54 nanoGlo assay, in single point, at 2uM, 72h; a lower Z score goes with more inhibition). Settings: timepoint 72 hour.
Format: functional, Erythrocyte

SMILES | % Inhibition [%] | Z score
CCOc1ccc(-n2nnc(-c3nc(C)c(C(=O)N(C)Cc4ccccc4)s3)c2C)cc1 | -18 | 1.66
COC(=O)c1cc(C(=O)N[C@@]2(C)CCc3ccccc3C2)ccn1 | -14 | 1.95
COc1ccc(-c2nccn2CCN2CCCC[C@@H]2CO)c(C)c1C | -11 | 1.22
N#Cc1ccccc1-c1ccccc1C(=O)N1CCOCC1 | -1 | 0.1
O=C(O)[C@]12CCCN[C@@H]1CCN(Cc1ccccc1OC(F)(F)F)C2 | -21 | 2.63
Cc1cc(C(=O)N[C@H]2CCc3nnc(C4CC4)n3CC2)c(C)n1Cc1ccco1 | -6 | 1.17
CC[C@H](C)NC(=O)C(=O)Nc1ccc(Cl)cc1 | 6 | -0.85
COc1ccc(-c2nc3cc(F)ccc3cc2CN(C(=O)CCc2ccccc2OC)C2CC2)cc1 | 0 | 0.01
O=C1COc2cccc(C(=O)N3CC[C@@H]4CC[C@@]43c3cccnc3)c2N1 | 7 | -0.74
Cn1c(CO)nnc1[C@H]1C[C@@H](NC(=O)CCNC(=O)c2ccc(F)cc2)C1 | -11 | 2
Cc1sc2ccccc2c1CN1CC[C@H](N2CCN(C)CC2)C1 | 1 | -0.18
Cc1nscc1-c1nc(-c2ccc(N3CCCN(C)CC3)nc2)no1 | -8 | 1.57
Cc1cccn(Cc2nnnn2C2CC2)c1=O | 40 | -5.37
CN(C)c1ccc([C@@H]2C=C(c3ccc(F)cc3)Nc3nnnn32)cc1 | 1 | -0.11
COc1cc(N(C)C)c(OC)cc1/C=C1\C=Cc2ccccc21 | -18 | 2.11
COc1ncnc(N(C)C)c1NC(=O)c1ncoc1-c1cccs1 | -8 | 0.78
Cc1ncoc1C(=O)N1CCC(Cc2ccc(C(=O)N3CCOCC3)cc2)CC1 | -5 | 0.82
CCC[C@H]1CN(CC#N)CCN1CC#N | -9 | 1.61
CNC(=O)Cn1nc(C(=O)N[C@H]2CC[C@@H](C(=O)NC3CCC3)C2)cc1C | -6 | 0.9
COc1ccc([C@H]2CC(=O)Nc3c2c(=O)[nH]n3C2CCCCCCC2)cc1O | 3 | -0.65
COc1cc(=O)n2c(c1C(=O)N(C)Cc1nonc1C)CCN(C(=O)CCC1CCCCC1)CC2 | 2 | -0.43
CC(C)OC1CC(NC[C@H](O)Cc2ccccc2)C1 (stereo not given in full) | -6 | 1.22
O=S(=O)(c1ccccc1F)N1c2ccncc2N2CCC1C2 (stereo not given) | 1 | -0.14
CN1CC2(CCN(S(=O)(=O)c3ccccc3Cl)CC2)OCC1=O | -7 | 1.39
Cc1nn(C)c(C)c1-c1cc(C(=O)N[C@@H]2[C@@H]3CCO[C@@H]3[C@H]2N(C)C)n(C)n1 | 2 | -0.35
O=C(NCCC1CCCO1)C1CC1c1ccco1 (stereo not given) | 1 | -0.09
O=C(CS(=O)(=O)C1CCCC1)N1CCC2CCCCC21 (stereo not given) | -15 | 2.51
CC(=O)NCCCc1nc(-c2c[nH]c3ccccc23)n[nH]1 | -2 | 0.38

SMILES | % Inhibition [%] | Z score
O=S(=O)(Nc1nc2ccccc2nc1Nc1ccccc1N1CCCCC1)c1ccc(Cl)cc1 | -9 | 1.45
COc1cccc(OCC2c3ccsc3CCN2C(=O)CN(CC(O)COC(C)C)CC2CC2)c1 (stereo not given) | 7 | -0.78
CCCN(CC)c1ccc(C(=O)OCc2ccccn2)cn1 | -4 | 0.65
CC(=O)N1CC(NC(=O)COC(C)(C)C)C1 | -4 | 0.64
COc1ccc(NC(=O)NC2CCCCCCC2)cc1 | 22 | -3.12
C[C@@H](c1ccccn1)N(C(=O)Nc1ccc(Cl)c(Cl)c1)C1CCCCC1 | -14 | 2.33
Cc1c(C(=O)NCc2cccnc2)oc2ccc3c(c12)[C@@H](O)CC1(CCCCC1)O3 | -3 | 0.58
C[C@H]1CN(C(=O)CS(=O)(=O)Cc2ccc(Br)cc2)CCN1 | -1 | 0.22
COc1cccc(Cl)c1CN[C@@H](C)C1CCS(=O)(=O)CC1 | -12 | 1.49
CC1(C)COC[C@H](CS(=O)(=O)NCCNc2ccccc2)O1 | 7 | -1.25
CCC1(CNC(=O)[C@H]2CCCOC2)CC1 | 10 | -1.17
Cc1ccc(NC(=O)N2CCCC3CN(C)CCC32)cc1Cl (stereo not given) | -3 | 0.26
C[C@@H]1Oc2ccc(NC(=O)CCN3C(=O)CCC3=O)cc2NC1=O | 0 | -0.05
CCn1nncc1CNc1ncc(C)cc1Br | 5 | -0.44
O=S(=O)(CCNc1ncncn1)N1CCCC1 | 3 | -0.47
Cc1nc(C(=O)Nc2ccc3c(c2)OCCN3C)c(C)o1 | -3 | 0.58
OCCn1nc(COc2ccc(F)cc2)nc1[C@@H]1CC=CCC1 | -4 | 0.54
Cc1ccc(CN2CCC3(CC2)COC(=O)O3)c(F)c1F | 0 | 0.04
Cn1cc([C@H]2CCCN(C(=O)c3ccncc3F)C2)cn1 | -6 | 1.2
CC(=O)NC[C@H]1CN(c2ccnc3ccsc23)CCO1 | 0 | -0.03
CCN(C)c1ccccc1NC(=O)CC(F)(F)F | -9 | 0.88
CC(C)c1cn2c(C(=O)ON(C)C)cccc2[n+]1C | -13 | 1.55
Cc1cccc(CN2CCC[C@@]3(CCN(c4nc(-c5ccccc5)no4)C3)C2)c1 | -4 | 0.57
O=C1CCCN1CCN(CCc1c[nH]c2ccccc12)Cc1cccnc1 | 0 | -0.05
COCCCn1c(C)c(C)c(S(=O)(=O)c2ccc(C)cc2)c1N | -4 | 0.38
CC[C@@](C)(CC(=O)O)NC(=O)c1ccc(F)c(C)c1 | 4 | -0.44
COC1CC2CCC(C1)N2S(=O)(=O)c1cccc(C(C)=O)c1 (stereo not given) | -17 | 2.23
